# Experimental data taken from the supplement of paper PMC8728848.
# This is one part of the list.
# Key:
# Test in all cases: glycan array binding signal (z-score within array); higher = stronger binding
# Details in all cases: glycan notation: IUPAC condensed, linker removed
# [1] = molecular target: Gal(b1-3)[Fuc(a1-4)]GlcNAc(b1-3)Gal(b1-4)[Fuc(a1-3)]GlcNAc
# Summary of the method: (§1)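 The binding signal is a Z-score computed within each array and averaged over linkers. Arrays of the same protein sequence at different concentrations or buffers were also averaged together. Data originate from 3228 arrays in the Consortium for Functional Glycomics database, kept only where the protein sequence was available.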
# [2] = molecular target: Gal(b1-3)[GlcNAc(b1-6)]GalNAc
# Summary of the method: as §1
# [3] = molecular target: Gal(b1-3)[Neu5Ac(a2-6)]GalNAc
# Summary of the method: as §1
# [4] = molecular target: Gal(b1-3)[Neu5Ac(a2-6)]GlcNAc(b1-6)Gal(b1-4)Glc
# Summary of the method: as §1
# [5] = molecular target: Gal(b1-3)[Neu5Ac(b2-6)]GalNAc
# Summary of the method: as §1
# [6] = molecular target: Gal(b1-4)GalNAc(a1-3)[Fuc(a1-2)]Gal(b1-4)GlcNAc
# Summary of the method: as §1
# [7] = molecular target: Gal(b1-4)GalNAc(b1-3)[Fuc(a1-2)]Gal(b1-4)GlcNAc
# Summary of the method: as §1
# Gal(b1-4)Glc = molecular target: Gal(b1-4)Glc
# Summary of the method: as §1
# Gal(b1-4)Glc6S = molecular target: Gal(b1-4)Glc6S
# Summary of the method: as §1
# Gal(b1-4)GlcNAc = molecular target: Gal(b1-4)GlcNAc
# Summary of the method: as §1
# [8] = molecular target: Gal(b1-4)GlcNAc(b1-2)Man(a1-3)[Gal(b1-4)GlcNAc(b1-2)Man(a1-6)]Man(b1-4)GlcNAc(b1-4)GlcNAc
# Summary of the method: as §1
# [9] = molecular target: Gal(b1-4)GlcNAc(b1-3)Gal(b1-4)Glc
# Summary of the method: as §1
# [10] = molecular target: Gal(b1-4)GlcNAc(b1-3)Gal(b1-4)GlcNAc
# Summary of the method: as §1
# [11] = molecular target: Gal(b1-4)GlcNAc(b1-3)Gal(b1-4)GlcNAc(b1-3)Gal(b1-4)GlcNAc
# Summary of the method: as §1
# [12] = molecular target: Gal(b1-4)GlcNAc(b1-3)Gal(b1-4)[Fuc(a1-3)]GlcNAc(b1-3)Gal(b1-4)[Fuc(a1-3)]GlcNAc
# Summary of the method: as §1
# [13] = molecular target: Gal(b1-4)GlcNAc(b1-3)GalNAc
# Summary of the method: as §1
# [14] = molecular target: Gal(b1-4)GlcNAc(b1-3)[Gal(b1-4)GlcNAc(b1-6)]GalNAc
# Summary of the method: as §1
# [15] = molecular target: Gal(b1-4)GlcNAc(b1-6)Gal(b1-4)GlcNAc(b1-6)GalNAc
# Summary of the method: as §1
# [16] = molecular target: Gal(b1-4)GlcNAc(b1-6)GalNAc
# Summary of the method: as §1
# [17] = molecular target: Gal(b1-4)GlcNAc(b1-6)[Gal(b1-3)]GalNAc
# Summary of the method: as §1
# Gal3S(b1-3)GalNAc = molecular target: Gal3S(b1-3)GalNAc
# Summary of the method: as §1
# Gal3S(b1-3)GlcNAc = molecular target: Gal3S(b1-3)GlcNAc
# Summary of the method: as §1
# [18] = molecular target: Gal3S(b1-3)[Fuc(a1-4)]GlcNAc
# Summary of the method: as §1
# Gal3S(b1-4)Glc = molecular target: Gal3S(b1-4)Glc
# Summary of the method: as §1
# Gal3S(b1-4)Glc6S = molecular target: Gal3S(b1-4)Glc6S
# Summary of the method: as §1
# Gal3S(b1-4)GlcNAc = molecular target: Gal3S(b1-4)GlcNAc
# Summary of the method: as §1
# Gal3S(b1-4)GlcNAc6S = molecular target: Gal3S(b1-4)GlcNAc6S
# Summary of the method: as §1
# Gal3S6S(b1-4)GlcNAc = molecular target: Gal3S6S(b1-4)GlcNAc
# Summary of the method: as §1
# Gal3S6S(b1-4)GlcNAc6S = molecular target: Gal3S6S(b1-4)GlcNAc6S
# Summary of the method: as §1
# Gal4S(b1-4)GlcNAc = molecular target: Gal4S(b1-4)GlcNAc
# Summary of the method: as §1
# Gal4S6S(b1-4)GlcNAc = molecular target: Gal4S6S(b1-4)GlcNAc
# Summary of the method: as §1
# Gal6S(b1-4)Glc = molecular target: Gal6S(b1-4)Glc
# Summary of the method: as §1
# Gal6S(b1-4)Glc6S = molecular target: Gal6S(b1-4)Glc6S
# Summary of the method: as §1
# Gal6S(b1-4)GlcNAc = molecular target: Gal6S(b1-4)GlcNAc
# Summary of the method: as §1
# GalNAc(a1-3)Gal = molecular target: GalNAc(a1-3)Gal
# Summary of the method: as §1
# GalNAc(a1-3)GalNAc = molecular target: GalNAc(a1-3)GalNAc
# Summary of the method: as §1
# [19] = molecular target: GalNAc(b1-3)Gal(a1-4)Gal(b1-4)GlcNAc
# Summary of the method: as §1
# GalNAc(b1-3)GalNAc = molecular target: GalNAc(b1-3)GalNAc
# Summary of the method: as §1
# GalNAc(b1-4)GlcNAc = molecular target: GalNAc(b1-4)GlcNAc
# Summary of the method: as §1
# Glc(a1-4)Glc = molecular target: Glc(a1-4)Glc
# Summary of the method: as §1
# Glc(a1-6)Glc(a1-6)Glc = molecular target: Glc(a1-6)Glc(a1-6)Glc
# Summary of the method: as §1
# Glc(b1-4)Glc = molecular target: Glc(b1-4)Glc
# Summary of the method: as §1
# Glc(b1-6)Glc = molecular target: Glc(b1-6)Glc
# Summary of the method: as §1
# GlcA(b1-3)Gal = molecular target: GlcA(b1-3)Gal
# Summary of the method: as §1
# GlcA(b1-6)Gal = molecular target: GlcA(b1-6)Gal
# Summary of the method: as §1
# [20] = molecular target: GlcNAc(a1-3)Gal(b1-4)GlcNAc
# Summary of the method: as §1
# [21] = molecular target: GlcNAc(a1-6)Gal(b1-4)GlcNAc
# Summary of the method: as §1
# [22] = molecular target: GlcNAc(b1-2)Gal(b1-3)GalNAc
# Summary of the method: as §1
# [23] = molecular target: GlcNAc(b1-2)Man(a1-3)[GlcNAc(b1-2)Man(a1-6)]Man(b1-4)GlcNAc(b1-4)GlcNAc
# Summary of the method: as §1
# GlcNAc(b1-3)Gal = molecular target: GlcNAc(b1-3)Gal
# Summary of the method: as §1
# [24] = molecular target: GlcNAc(b1-3)Gal(b1-3)GalNAc
# Summary of the method: as §1
# GlcNAc(b1-3)Gal(b1-4)Glc = molecular target: GlcNAc(b1-3)Gal(b1-4)Glc
# Summary of the method: as §1
# [25] = molecular target: GlcNAc(b1-3)Gal(b1-4)GlcNAc
# Summary of the method: as §1
# [26] = molecular target: GlcNAc(b1-3)Gal(b1-4)GlcNAc(b1-3)Gal(b1-4)GlcNAc
# Summary of the method: as §1
# GlcNAc(b1-3)GalNAc = molecular target: GlcNAc(b1-3)GalNAc
# Summary of the method: as §1
# [27] = molecular target: GlcNAc(b1-3)[GlcNAc(b1-6)]Gal(b1-4)GlcNAc
# Summary of the method: as §1
# [28] = molecular target: GlcNAc(b1-3)[GlcNAc(b1-6)]GalNAc
# Summary of the method: as §1
# [29] = molecular target: GlcNAc(b1-3)[GlcNAc(b1-6)]GlcNAc(b1-4)GlcNAc
# Summary of the method: as §1
# [30] = molecular target: GlcNAc(b1-4)Gal(b1-4)GlcNAc
# Summary of the method: as §1
# [31] = molecular target: GlcNAc(b1-4)GlcNAc(b1-4)GlcNAc
# Summary of the method: as §1
binder,measurement,setting,value
"F4 (Escherichia coli), A0A6L9DDF0 (protein) MKKTLIALALAASAVSGMAHAWTSGDFNGTVDIGGSIDATNYRQKWEWEVGTGLNGFYNALSELTNNDTKLTITVTGNKPILLGRTKEAFVTPTAGGWGGIPQIAFTDYKGAPVELKNPDGETNKGLAYFVLPMKNADGTEAGSVRVNASYAGAVVEKTSDSSAKLFSAYAGEVIRIFNGGLPVNVTQSELQSGVAAADRTALFGSLGKADLVAQFQAVIPGATVTDGTSSEHCTMRLLASAAYALGIADGQTIEATFNQAVTTSTQWSAPLNVAITYY",glycan array binding signal (z-score),[1],-0.374
same,glycan array binding signal (z-score),[2],-0.148
same,glycan array binding signal (z-score),[3],0.11
same,glycan array binding signal (z-score),[4],-0.384
same,glycan array binding signal (z-score),[5],0.121
same,glycan array binding signal (z-score),[6],-0.334
same,glycan array binding signal (z-score),[7],-0.334
same,glycan array binding signal (z-score),Gal(b1-4)Glc,-0.253
same,glycan array binding signal (z-score),Gal(b1-4)Glc6S,-0.209
same,glycan array binding signal (z-score),Gal(b1-4)GlcNAc,-0.137
same,glycan array binding signal (z-score),[8],-0.271
same,glycan array binding signal (z-score),[9],-0.276
same,glycan array binding signal (z-score),[10],-0.397
same,glycan array binding signal (z-score),[11],-0.035
same,glycan array binding signal (z-score),[12],-0.237
same,glycan array binding signal (z-score),[13],-0.22
same,glycan array binding signal (z-score),[14],-0.216
same,glycan array binding signal (z-score),[15],-0.235
same,glycan array binding signal (z-score),[16],-0.298
same,glycan array binding signal (z-score),[17],-0.257
same,glycan array binding signal (z-score),Gal3S(b1-3)GalNAc,-0.299
same,glycan array binding signal (z-score),Gal3S(b1-3)GlcNAc,-0.103
same,glycan array binding signal (z-score),[18],-0.02
same,glycan array binding signal (z-score),Gal3S(b1-4)Glc,-0.308
same,glycan array binding signal (z-score),Gal3S(b1-4)Glc6S,0.081
same,glycan array binding signal (z-score),Gal3S(b1-4)GlcNAc,-0.124
same,glycan array binding signal (z-score),Gal3S(b1-4)GlcNAc6S,0.114
same,glycan array binding signal (z-score),Gal3S6S(b1-4)GlcNAc,-0.105
same,glycan array binding signal (z-score),Gal3S6S(b1-4)GlcNAc6S,0.447
same,glycan array binding signal (z-score),Gal4S(b1-4)GlcNAc,-0.043
same,glycan array binding signal (z-score),Gal4S6S(b1-4)GlcNAc,0.285
same,glycan array binding signal (z-score),Gal6S(b1-4)Glc,-0.213
same,glycan array binding signal (z-score),Gal6S(b1-4)Glc6S,0.046
same,glycan array binding signal (z-score),Gal6S(b1-4)GlcNAc,1.48
same,glycan array binding signal (z-score),GalNAc(a1-3)Gal,0.296
same,glycan array binding signal (z-score),GalNAc(a1-3)GalNAc,0.449
same,glycan array binding signal (z-score),[19],-0.337
same,glycan array binding signal (z-score),GalNAc(b1-3)GalNAc,-0.192
same,glycan array binding signal (z-score),GalNAc(b1-4)GlcNAc,-0.243
same,glycan array binding signal (z-score),Glc(a1-4)Glc,-0.118
same,glycan array binding signal (z-score),Glc(a1-6)Glc(a1-6)Glc,-0.323
same,glycan array binding signal (z-score),Glc(b1-4)Glc,-0.165
same,glycan array binding signal (z-score),Glc(b1-6)Glc,-0.444
same,glycan array binding signal (z-score),GlcA(b1-3)Gal,-0.274
same,glycan array binding signal (z-score),GlcA(b1-6)Gal,-0.09
same,glycan array binding signal (z-score),[20],1.18
same,glycan array binding signal (z-score),[21],-0.302
same,glycan array binding signal (z-score),[22],-0.326
same,glycan array binding signal (z-score),[23],-0.332
same,glycan array binding signal (z-score),GlcNAc(b1-3)Gal,-0.074
same,glycan array binding signal (z-score),[24],-0.162
same,glycan array binding signal (z-score),GlcNAc(b1-3)Gal(b1-4)Glc,8.86
same,glycan array binding signal (z-score),[25],-0.028
same,glycan array binding signal (z-score),[26],-0.244
same,glycan array binding signal (z-score),GlcNAc(b1-3)GalNAc,-0.325
same,glycan array binding signal (z-score),[27],-0.291
same,glycan array binding signal (z-score),[28],-0.215
same,glycan array binding signal (z-score),[29],-0.103
same,glycan array binding signal (z-score),[30],-0.27
same,glycan array binding signal (z-score),[31],-0.335
